Assay results taken from publication PMC7819943, “Rice protein-binding microarrays: a tool to detect cis-acting elements near promoter regions in rice”.
This is one part of the list.

Target: T1, OsWOX13 (Oryza sativa, UniProt Q5QMM3 1-267)
T1 sequence: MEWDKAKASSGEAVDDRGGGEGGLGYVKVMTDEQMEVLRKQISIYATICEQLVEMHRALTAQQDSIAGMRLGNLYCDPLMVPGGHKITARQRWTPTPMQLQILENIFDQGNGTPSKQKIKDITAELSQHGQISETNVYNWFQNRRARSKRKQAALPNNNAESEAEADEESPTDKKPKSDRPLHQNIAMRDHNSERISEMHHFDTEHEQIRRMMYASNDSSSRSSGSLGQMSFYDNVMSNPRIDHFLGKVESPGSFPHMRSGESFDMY
Experiment: protein-binding microarray (RPBM); PBS, 2% BSA, 51.3 ng/ul salmon testes DNA, 50 uM zinc acetate, 200 nM TF, 25 C, 1 h; high values mean tight binding
Conditions: protein: recombinant; tags: N-terminal polyhistidine and DsRed monomer fusion (pET32a); label: CyDye5-dUTP incorporated in the synthesized complementary strand; 3' TTTTT single-stranded linker to array surface; dsDNA, one strand shown
Method in brief: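 Transcription factors were each fused at the N-terminus to a polyhistidine tag plus DsRed and expressed in E. coli BL21-CodonPlus before Ni–NTA purification. Binding to a double-stranded custom Agilent array was carried out with 200 nM protein at 25 °C for 1 h in PBS, 2% BSA, salmon testes DNA and 50 µM zinc acetate. The binding signal is per-feature fluorescence intensity, in arbitrary units, on an Axon 4000B scanner.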

Question: How did the binding signal turn out when “CACGAGCTAGGTTGATTGGTAGCTAGCAGCTAGCTCCAGCCGGAGTCACCTAGTGCAG” was run?
Answer: The binding signal was 9190 fluorescence intensity (a.u.).

Question: With “TTTTAATCAAACTCCACATTAAATTAATAAATTAGGTGATCGGAGTCACCTAGTGCAG” as the sequence, how does the binding signal read?
Answer: Its binding signal is 11800 fluorescence intensity (a.u.).

Question: With “CTGGCTAATTAACTAGCTAGCTCGTGATCGATAATATACACGGAGTCACCTAGTGCAG” as the sequence, how does the binding signal read?
Answer: Its binding signal is 14200 fluorescence intensity (a.u.).

Question: “AACTAATTACGGAATCCGTCAGTAAACAACGAGACGAATTCGGAGTCACCTAGTGCAG” was tested. Which binding signal did it give?
Answer: The binding signal was 11100 fluorescence intensity (a.u.).

Question: For “CAAATCAATTATATCCCCAAATTTCTCACCAGTCTACTTCCGGAGTCACCTAGTGCAG”, which binding signal is on record?
Answer: The binding signal was 16200 fluorescence intensity (a.u.).

Question: Which binding signal does the source give for “CAATTAACACATGATGAATTAATTATTAACTATTATAAACCGGAGTCACCTAGTGCAG” here?
Answer: The binding signal was 11700 fluorescence intensity (a.u.).

Question: Which binding signal does the source give for “TGCATCCAATCAAAGTGATGAGTATATCTGTGTTCCTTCCCGGAGTCACCTAGTGCAG” here?
Answer: The binding signal was 14300 fluorescence intensity (a.u.).

Question: “ATAATTGAATTAAACTGAAATGTTACAATAACCCTCTTTTCGGAGTCACCTAGTGCAG” was tested. Which binding signal did it give?
Answer: The binding signal was 42800 fluorescence intensity (a.u.).

Question: For “TTTAACACGTAATTGATCATGACTCATGAGCTAATCATCCCGGAGTCACCTAGTGCAG”, which binding signal is on record?
Answer: Its binding signal is 35600 fluorescence intensity (a.u.).

Question: How did the binding signal turn out when “CCACACCAATTAAAATGATGGCGTTGTACAGTTCATCGGGCGGAGTCACCTAGTGCAG” was run?
Answer: Its binding signal is 5640 fluorescence intensity (a.u.).

Question: How did the binding signal turn out when “AGCTCTGGTTAATTGCATTTTGGTTCCAGCTATCATGACCCGGAGTCACCTAGTGCAG” was run?
Answer: The binding signal was 9190 fluorescence intensity (a.u.).

Question: “TTTAATTAAATTTAACATTAAATATATTTTGACTATTTGTCGGAGTCACCTAGTGCAG” was tested. Which binding signal did it give?
Answer: Its binding signal is 53000 fluorescence intensity (a.u.).

Question: With “ATATGCTGTTAATTTGTTATATATACGATGTTGGTATATTCGGAGTCACCTAGTGCAG” as the sequence, how does the binding signal read?
Answer: The binding signal was 12300 fluorescence intensity (a.u.).

Question: How did the binding signal turn out when “ATGTGTATGATGTGTTTGTTTATGTGTGGACTTTATAATACGGAGTCACCTAGTGCAG” was run?
Answer: The binding signal was 3210 fluorescence intensity (a.u.).

Question: “AGTGATTTTACCTAATCTACCTGATCTCCTACTGTCTTGTCGGAGTCACCTAGTGCAG” was tested. Which binding signal did it give?
Answer: The binding signal was 22100 fluorescence intensity (a.u.).

Question: Which binding signal does the source give for “CAAACAAAATTACTGACAAGAGCTTAAACGTTCTCTCATTCGGAGTCACCTAGTGCAG” here?
Answer: The binding signal was 5200 fluorescence intensity (a.u.).

Question: With “TATTGTGACTGGTTTTGATTAGTTAAGGAACACCGGATATCGGAGTCACCTAGTGCAG” as the sequence, how does the binding signal read?
Answer: Its binding signal is 12800 fluorescence intensity (a.u.).

Question: “TAGATTATAATAATCTAGCATAATAATCTACTTGTTTGTTCGGAGTCACCTAGTGCAG” was tested. Which binding signal did it give?
Answer: Its binding signal is 9200 fluorescence intensity (a.u.).

Question: For “CAGAGTGAAGATTTGTCAATTTGTATGGCACAAATGTCTACGGAGTCACCTAGTGCAG”, which binding signal is on record?
Answer: Its binding signal is 13900 fluorescence intensity (a.u.).

Question: For “CACTATGATTATTGTTGTTACACTATCAGCCTCTGCTCAACGGAGTCACCTAGTGCAG”, which binding signal is on record?
Answer: The binding signal was 17700 fluorescence intensity (a.u.).

Question: “GGGCTAAATTGCTCTAGGCCAAGCATGCTTAACCTTAGAGCGGAGTCACCTAGTGCAG” was tested. Which binding signal did it give?
Answer: The binding signal was 4120 fluorescence intensity (a.u.).

Question: “ACGAGGAATCAATCATCAGTCGGCGAAGGCCCATCAACAGCGGAGTCACCTAGTGCAG” was tested. Which binding signal did it give?
Answer: Its binding signal is 13300 fluorescence intensity (a.u.).

Question: “TTTTACTATAACGTTTGATCATTTGTGTTATTTAAATTTTCGGAGTCACCTAGTGCAG” was tested. Which binding signal did it give?
Answer: The binding signal was 4170 fluorescence intensity (a.u.).

Question: “GCATAAATGCATAATCAGTATAGGAGCAAATCGTTTTAAACGGAGTCACCTAGTGCAG” was tested. Which binding signal did it give?
Answer: Its binding signal is 3220 fluorescence intensity (a.u.).

Question: For “AAGAGAGATTATTGACTTATCACCGATCAGCAGAAAAGAGCGGAGTCACCTAGTGCAG”, which binding signal is on record?
Answer: Its binding signal is 4340 fluorescence intensity (a.u.).

Question: Which binding signal does the source give for “ATCACAAATTACTTTTAAACTATGAGATTACGATGAATGACGGAGTCACCTAGTGCAG” here?
Answer: Its binding signal is 7640 fluorescence intensity (a.u.).

Question: Which binding signal does the source give for “ATTGATTTCACGTGTGTTGCGTGAAGGCAGCGGCTCGGTTCGGAGTCACCTAGTGCAG” here?
Answer: Its binding signal is 4030 fluorescence intensity (a.u.).

Question: How did the binding signal turn out when “GTCAATCTAATCACAAACTTAGATGTTTATGACCCACAAACGGAGTCACCTAGTGCAG” was run?
Answer: The binding signal was 14900 fluorescence intensity (a.u.).

Question: Which binding signal does the source give for “TCTGTATTAATTTTATCCCGTGACTGCCGTTTTGCAACGGCGGAGTCACCTAGTGCAG” here?
Answer: The binding signal was 16900 fluorescence intensity (a.u.).

Question: How did the binding signal turn out when “ATTAATTGTGTGCATGTATACATGCCTTATATTATGGAACCGGAGTCACCTAGTGCAG” was run?
Answer: Its binding signal is 20800 fluorescence intensity (a.u.).

Question: Which binding signal does the source give for “TATAATTAAACTAATTTACAAGTAAAGTAAGTGTGAGAAACGGAGTCACCTAGTGCAG” here?
Answer: The binding signal was 4790 fluorescence intensity (a.u.).

Question: How did the binding signal turn out when “AGGGTTAATTTAGAGGTATTCACTCGCTGTTTTCATCACTCGGAGTCACCTAGTGCAG” was run?
Answer: The binding signal was 6370 fluorescence intensity (a.u.).

Question: “AACCAAAATTAAATAACCGCTTACCACAACACACGTGATACGGAGTCACCTAGTGCAG” was tested. Which binding signal did it give?
Answer: Its binding signal is 3450 fluorescence intensity (a.u.).

Question: How did the binding signal turn out when “ATTTAATTCCTGTGGCTTGATTTCCTTCTCGGCACAAGAACGGAGTCACCTAGTGCAG” was run?
Answer: Its binding signal is 6420 fluorescence intensity (a.u.).

Question: Which binding signal does the source give for “TCCAATAAAATCAATTTAATATACAAACATCAAATCTACTCGGAGTCACCTAGTGCAG” here?
Answer: Its binding signal is 3480 fluorescence intensity (a.u.).

Question: For “TACATATGTAATTGGTATGTAATTTTCGAATTTACATATGCGGAGTCACCTAGTGCAG”, which binding signal is on record?
Answer: The binding signal was 18000 fluorescence intensity (a.u.).

Question: How did the binding signal turn out when “ATAAATTTGTGATGCCAATTTAAGTATGTTCATTCGATCTCGGAGTCACCTAGTGCAG” was run?
Answer: Its binding signal is 30200 fluorescence intensity (a.u.).

Question: For “ATAAAATTTTAAAATTTAAATTGTAGCCACAACTGATAAGCGGAGTCACCTAGTGCAG”, which binding signal is on record?
Answer: The binding signal was 15500 fluorescence intensity (a.u.).

Question: For “CCCTCGCCTGGGCCGATCCCCATACATCCCGCGAGCGCGACGGAGTCACCTAGTGCAG”, which binding signal is on record?
Answer: The binding signal was 3440 fluorescence intensity (a.u.).

Question: “AACATCATTGCTAATTGGTAATATGACCATTCAAACTATTCGGAGTCACCTAGTGCAG” was tested. Which binding signal did it give?
Answer: The binding signal was 17100 fluorescence intensity (a.u.).

Question: For “AACTGATGGCCCTAGAGAAATCCAATCAGAACCACATAGCCGGAGTCACCTAGTGCAG”, which binding signal is on record?
Answer: The binding signal was 3230 fluorescence intensity (a.u.).

Question: “TATTTAATACTCTAAATTAATGTCTAAATATAGGGACTAACGGAGTCACCTAGTGCAG” was tested. Which binding signal did it give?
Answer: Its binding signal is 3540 fluorescence intensity (a.u.).
